# Results: the supplement of paper PMC10037445
# Over roughly 2,900 compounds, “IRF Lucia reporter activity, fold change vs agonist alone” has its median near 0.9; the highest 2% begin near 2.8. This is one part of the list.
# Key:
# RAW-Dual [1] = assay: IRF Lucia reporter activity, fold change vs agonist alone; higher = enhanced IRF activity; conditions: library stock concentration (final ~1000-fold dilution): 10 mM, agonist: MPLA (TLR4) […]
# Outline: (§1)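 Reporter activity is given as fold change relative to agonist-alone wells. To measure it, 50 nL of library stock was pin-tooled onto RAW-Dual macrophages (50,000 cells/well, DMEM, 384-well plates), a PRR agonist followed 1 h later, and cells stayed at 37 °C, 5% CO2. Twenty hours on, supernatant was assayed for IRF (QuantiLuc luminescence) and NF-κB (QuantiBlue, 620 nm absorbance), and wells under 70% of agonist-control IncuCyte confluency in both mask sets were marked cytotoxic.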
# RAW-Dual [2] = assay: IRF Lucia reporter activity, fold change vs agonist alone; cytotoxicity flag (confluency mask): not cytotoxic; higher = enhanced IRF activity
# Outline: as §1
# RAW-Dual [3] = assay: IRF Lucia reporter activity, fold change vs agonist alone; cytotoxicity flag (confluency mask): cytotoxic (confluency <70% of control); higher = enhanced IRF activity
# Outline: as §1
# [4] = cytotoxicity flag (confluency mask): not cytotoxic
# [5] = agonist: 3'3'-cGAMP (STING) 10 ug/mL
# [6] = cytotoxicity flag (confluency mask): cytotoxic (confluency <70% of control)
compound,measurement,setting,value
CN1C(C(=O)Nc2ccccn2)=C(O)c2ccccc2S1(=O)=O,IRF Lucia reporter activity,RAW-Dual [1]; [4],0.974
CN1C(C(=O)Nc2ccccn2)=C(O)c2ccccc2S1(=O)=O (library stock concentration (final ~1000-fold dilution): 10 mM),IRF Lucia reporter activity,RAW-Dual [2]; [5],0.98
same,IRF Lucia reporter activity,RAW-Dual [2]; agonist: LPS (TLR4) 0.1 ug/mL,0.878
COc1c(C)c2c(c(O)c1C/C=C(\C)CCC(=O)OCCN1CCOCC1)C(=O)OC2 (library stock concentration (final ~1000-fold dilution): 10 mM),IRF Lucia reporter activity,RAW-Dual [3]; [5],0.449
same,IRF Lucia reporter activity,RAW-Dual [3]; agonist: LPS (TLR4) 0.1 ug/mL,0.922
COc1c(C)c2c(c(O)c1C/C=C(\C)CCC(=O)OCCN1CCOCC1)C(=O)OC2,IRF Lucia reporter activity,RAW-Dual [1]; [6],0.79
O=c1oc2cc(O)ccc2c2ccccc12 (library stock concentration (final ~1000-fold dilution): 10 mM),IRF Lucia reporter activity,RAW-Dual [2]; [5],0.337
same,IRF Lucia reporter activity,RAW-Dual [2]; agonist: LPS (TLR4) 0.1 ug/mL,0.758
CC(Oc1ccc(S(C)(=O)=O)cc1C(=O)N1CCN(c2ncc(C(F)(F)F)cc2F)CC1)C(F)(F)F (centres undefined) (library stock concentration (final ~1000-fold dilution): 10 mM),IRF Lucia reporter activity,RAW-Dual [2]; [5],0.991
same,IRF Lucia reporter activity,RAW-Dual [2]; agonist: LPS (TLR4) 0.1 ug/mL,1.1
NCCS (library stock concentration (final ~1000-fold dilution): 10 mM),IRF Lucia reporter activity,RAW-Dual [2]; [5],0.552
same,IRF Lucia reporter activity,RAW-Dual [2]; agonist: LPS (TLR4) 0.1 ug/mL,1.21
Cc1nc(NC(=O)N2CCCC2C(N)=O)sc1-c1csc(C(C)(C)C)n1 (centres undefined) (library stock concentration (final ~1000-fold dilution): 10 mM),IRF Lucia reporter activity,RAW-Dual [2]; [5],0.482
same,IRF Lucia reporter activity,RAW-Dual [2]; agonist: LPS (TLR4) 0.1 ug/mL,1.2
Cc1nc(NC(=O)N2CCCC2C(N)=O)sc1-c1csc(C(C)(C)C)n1 (centres undefined),IRF Lucia reporter activity,RAW-Dual [1]; [4],1.26
CC(=O)Oc1cc2c(s1)CCN(C(C(=O)C1CC1)c1ccccc1F)C2.Cl (centres undefined) (library stock concentration (final ~1000-fold dilution): 10 mM),IRF Lucia reporter activity,RAW-Dual [2]; [5],0.923
same,IRF Lucia reporter activity,RAW-Dual [2]; agonist: LPS (TLR4) 0.1 ug/mL,1.05
CC(=O)Oc1cc2c(s1)CCN(C(C(=O)C1CC1)c1ccccc1F)C2.Cl (centres undefined),IRF Lucia reporter activity,RAW-Dual [1]; [4],0.833
COc1c(OC2OC(CO)C(O)C(O)C2O)cc2c(c1OC)-c1ccc(SC)c(=O)cc1C(NC(C)=O)CC2 (centres undefined),IRF Lucia reporter activity,RAW-Dual [1]; [4],1
COc1c(OC2OC(CO)C(O)C(O)C2O)cc2c(c1OC)-c1ccc(SC)c(=O)cc1C(NC(C)=O)CC2 (centres undefined) (library stock concentration (final ~1000-fold dilution): 10 mM),IRF Lucia reporter activity,RAW-Dual [2]; [5],1.02
same,IRF Lucia reporter activity,RAW-Dual [2]; agonist: LPS (TLR4) 0.1 ug/mL,1.38
O=C(O)c1ccc(-n2nc(-c3ccccc3O)nc2-c2ccccc2O)cc1,IRF Lucia reporter activity,RAW-Dual [1]; [4],1.08
O=C(O)c1ccc(-n2nc(-c3ccccc3O)nc2-c2ccccc2O)cc1 (library stock concentration (final ~1000-fold dilution): 10 mM),IRF Lucia reporter activity,RAW-Dual [2]; [5],1.02
same,IRF Lucia reporter activity,RAW-Dual [2]; agonist: LPS (TLR4) 0.1 ug/mL,1.11
CC(Oc1cc(-n2cnc3ccc(CN4CCN(C)CC4)cc32)sc1C(N)=O)c1ccccc1C(F)(F)F (centres undefined) (library stock concentration (final ~1000-fold dilution): 10 mM),IRF Lucia reporter activity,RAW-Dual [2]; [5],1.07
same,IRF Lucia reporter activity,RAW-Dual [2]; agonist: LPS (TLR4) 0.1 ug/mL,1.6
CC(Oc1cc(-n2cnc3ccc(CN4CCN(C)CC4)cc32)sc1C(N)=O)c1ccccc1C(F)(F)F (centres undefined),IRF Lucia reporter activity,RAW-Dual [1]; [4],1.11
Cc1ccc(NCCN(C)CCNc2ccnc3cc(Cl)ccc23)c2c(=O)c3ccccc3sc12 (library stock concentration (final ~1000-fold dilution): 2 mM),IRF Lucia reporter activity,RAW-Dual [2]; [5],0.792
same,IRF Lucia reporter activity,RAW-Dual [2]; agonist: LPS (TLR4) 0.1 ug/mL,1.02
CCC(C)(C)C(=O)OC1CC(C)C=C2C=CC(C)C(CCC3CC(O)CC(=O)O3)C21 (centres undefined) (library stock concentration (final ~1000-fold dilution): 10 mM),IRF Lucia reporter activity,RAW-Dual [3]; [5],0.54
same,IRF Lucia reporter activity,RAW-Dual [3]; agonist: LPS (TLR4) 0.1 ug/mL,0.635
CCC(C)(C)C(=O)OC1CC(C)C=C2C=CC(C)C(CCC3CC(O)CC(=O)O3)C21 (centres undefined),IRF Lucia reporter activity,RAW-Dual [1]; [6],0.487
CN1CCN(Cc2ccc(NC(=O)Nc3ccc(Oc4cc(NC(=O)C5CC5)ncn4)cc3)cc2C(F)(F)F)CC1 (library stock concentration (final ~1000-fold dilution): 10 mM),IRF Lucia reporter activity,RAW-Dual [3]; [5],0.00991
same,IRF Lucia reporter activity,RAW-Dual [3]; agonist: LPS (TLR4) 0.1 ug/mL,0.00845
CN1CCN(Cc2ccc(NC(=O)Nc3ccc(Oc4cc(NC(=O)C5CC5)ncn4)cc3)cc2C(F)(F)F)CC1,IRF Lucia reporter activity,RAW-Dual [1]; [6],0.606
COCC1CC(c2ncc(-c3ccc4c(c3)COc3cc5c(ccc6[nH]c(C7CCC(C)N7C(=O)C(NC(=O)OC)C(C)C)nc65)cc3-4)[nH]2)N(C(=O)C(NC(=O)OC)c2ccccc2)C1 (centres undefined),IRF Lucia reporter activity,RAW-Dual [1]; [4],0.857
COCC1CC(c2ncc(-c3ccc4c(c3)COc3cc5c(ccc6[nH]c(C7CCC(C)N7C(=O)C(NC(=O)OC)C(C)C)nc65)cc3-4)[nH]2)N(C(=O)C(NC(=O)OC)c2ccccc2)C1 (centres undefined) (library stock concentration (final ~1000-fold dilution): 10 mM),IRF Lucia reporter activity,RAW-Dual [2]; [5],0.767
same,IRF Lucia reporter activity,RAW-Dual [2]; agonist: LPS (TLR4) 0.1 ug/mL,0.91
COCCOc1nc(N)c2[nH]c(=O)n(Cc3ccc(C(=O)O)cc3)c2n1 (library stock concentration (final ~1000-fold dilution): 10 mM),IRF Lucia reporter activity,RAW-Dual [2]; [5],1.54
same,IRF Lucia reporter activity,RAW-Dual [2]; agonist: LPS (TLR4) 0.1 ug/mL,1.06
NC(=O)c1cccc2nc(-c3ccc(C4CCCN4)cc3F)[nH]c12 (centres undefined),IRF Lucia reporter activity,RAW-Dual [1]; [4],0.47
NC(=O)c1cccc2nc(-c3ccc(C4CCCN4)cc3F)[nH]c12 (centres undefined) (library stock concentration (final ~1000-fold dilution): 10 mM),IRF Lucia reporter activity,RAW-Dual [2]; [5],0.665
same,IRF Lucia reporter activity,RAW-Dual [2]; agonist: LPS (TLR4) 0.1 ug/mL,0.339
O=C(O)C1OC(Oc2cc3oc(-c4ccccc4)cc(=O)c3c(O)c2O)C(O)C(O)C1O (centres undefined),IRF Lucia reporter activity,RAW-Dual [1]; [4],1.03
O=C(O)C1OC(Oc2cc3oc(-c4ccccc4)cc(=O)c3c(O)c2O)C(O)C(O)C1O (centres undefined) (library stock concentration (final ~1000-fold dilution): 10 mM),IRF Lucia reporter activity,RAW-Dual [2]; [5],0.96
same,IRF Lucia reporter activity,RAW-Dual [2]; agonist: LPS (TLR4) 0.1 ug/mL,0.958
O=C(CCCN1CCC(O)(c2ccc(Cl)cc2)CC1)c1ccc(F)cc1,IRF Lucia reporter activity,RAW-Dual [1]; [4],1.27
O=C(CCCN1CCC(O)(c2ccc(Cl)cc2)CC1)c1ccc(F)cc1 (library stock concentration (final ~1000-fold dilution): 10 mM),IRF Lucia reporter activity,RAW-Dual [2]; [5],0.769
same,IRF Lucia reporter activity,RAW-Dual [2]; agonist: LPS (TLR4) 0.1 ug/mL,1.46
CC(=O)N1c2ccc(-c3ccc(C(=O)O)cc3)cc2C(Nc2ccc(Cl)cc2)CC1C (centres undefined) (library stock concentration (final ~1000-fold dilution): 10 mM),IRF Lucia reporter activity,RAW-Dual [2]; [5],0.259
same,IRF Lucia reporter activity,RAW-Dual [2]; agonist: LPS (TLR4) 0.1 ug/mL,0.297
C#Cc1cccc(Nc2ncnc3cc(OCCOC)c(OCCO)cc23)c1.Cl,IRF Lucia reporter activity,RAW-Dual [1]; [4],0.2
C#Cc1cccc(Nc2ncnc3cc(OCCOC)c(OCCO)cc23)c1.Cl (library stock concentration (final ~1000-fold dilution): 10 mM),IRF Lucia reporter activity,RAW-Dual [2]; [5],0.0323
same,IRF Lucia reporter activity,RAW-Dual [2]; agonist: LPS (TLR4) 0.1 ug/mL,0.16
